Test results from publication PMC11661359, “Structure guided functional analysis of the S. cerevisiae Mre11 complex” (Research Square, 2024).
Results are given in words; binding and its absence hold for the method and conditions named. Some entries that bind do so weakly or less than the wild type. Where a sequence is shown, tags or fusion partners need not be part of it.

T1: Mre11 (wild type) as Gal4 fusion for the yeast two-hybrid assay (S. cerevisiae) (UniProt P32829)
T1 sequence: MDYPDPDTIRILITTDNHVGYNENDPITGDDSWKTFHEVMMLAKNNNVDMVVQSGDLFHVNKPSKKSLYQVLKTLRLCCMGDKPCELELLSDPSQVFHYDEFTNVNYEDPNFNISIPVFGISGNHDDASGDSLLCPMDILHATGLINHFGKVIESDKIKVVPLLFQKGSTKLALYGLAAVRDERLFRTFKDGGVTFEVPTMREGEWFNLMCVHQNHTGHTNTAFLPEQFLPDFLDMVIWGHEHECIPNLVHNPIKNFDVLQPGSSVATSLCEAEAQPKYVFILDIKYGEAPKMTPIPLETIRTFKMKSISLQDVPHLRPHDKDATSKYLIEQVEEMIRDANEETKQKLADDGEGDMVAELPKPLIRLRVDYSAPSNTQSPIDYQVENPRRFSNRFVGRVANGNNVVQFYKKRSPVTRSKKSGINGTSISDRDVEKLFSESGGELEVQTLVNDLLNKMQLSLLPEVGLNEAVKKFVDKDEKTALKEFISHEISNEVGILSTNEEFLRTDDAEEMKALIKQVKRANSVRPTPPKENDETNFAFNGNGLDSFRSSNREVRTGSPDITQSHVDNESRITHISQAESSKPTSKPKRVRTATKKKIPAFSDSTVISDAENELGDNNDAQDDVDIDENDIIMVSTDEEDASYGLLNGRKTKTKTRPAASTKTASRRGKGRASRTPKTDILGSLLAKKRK


Molecular target: T1, Mre11 (wild type) as Gal4 fusion for the yeast two-hybrid assay (S. cerevisiae)
Experiment: two-hybrid; Gal4 DNA-binding domain (pGBD; TRP1) and Gal4 activation domain (pGAD; LEU2) fusions; growth in absence of histidine (Do-TLH) and of adenine and histidine (Do-TLAH)

Row | binding | Binder
1 | binds | Rad50 as Gal4 fusion for the yeast two-hybrid assay (enzyme, UniProt P12753 1-1312) MSAIYKLSIQGIRSFDSNDRETIEFGKPLTLIVGMNGSGKTTIIECLKYATTGDLPPNSKGGVFIHDPKITGEKDIRAQVKLAFTSANGLNMIVTRNIQLLMKKTTTTFKTLEGQLVAINNSGDRSTLSTRSLELDAQVPLYLGVPKAILEYVIFCHQEDSLWPLSEPSNLKKKFDEIFQAMKFTKALDNLKSIKKDMSVDIKLLKQSVEHLKLDKDRSKAMKLNIHQLQTKIDQYNEEVSEIESQLNEITEKSDKLFKSNQDFQKILSKVENLKNTKLSISDQVKRLSNSIDILDLSKPDLQNLLANFSKVLMDKNNQLRDLETDISSLKDRQSSLQSLSNSLIRRQGELEAGKETYEKNRNHLSSLKEAFQHKFQGLSNIENSDMAQVNHEMSQFKAFISQDLTDTIDQFAKDIQLKETNLSDLIKSITVDSQNLEYNKKDRSKLIHDSEELAEKLKSFKSLSTQDSLNHELENLKTYKEKLQSWESENIIPKLNQKIEEKNNEMIILENQIEKFQDRIMKTNQQADLYAKLGLIKKSINTKLDELQKITEKLQNDSRIRQVFPLTQEFQRADLEMDFQKLFINMQKNIAINNKKMHELDRRYTNALYNLNTIEKDLQDNQKSKEKVIQLLSENLPEDCTIDEYNDVLEETELSYKTALENLKMHQTTLEFNRKALEIAERDSCCYLCSRKFENESFKSKLLQELKTKTDANFEKTLKDTVQNEKEYLHSLRLLEKHIITLNSINEKIDNSQKCLEKAKEETKTSKSKLDELEVDSTKLKDEKELAESEIRPLIEKFTYLEKELKDLENSSKTISEELSIYNTSEDGIQTVDELRDQQRKMNDSLRELRKTISDLQMEKDEKVRENSRMINLIKEKELTVSEIESSLTQKQNIDDSIRSKRENINDIDSRVKELEARIISLKNKKDEAQSVLDKVKNERDIQVRNKQKTVADINRLIDRFQTIYNEVVDFEAKGFDELQTTIKELELNKAQMLELKEQLDLKSNEVNEEKRKLADSNNEEKNLKQNLELIELKSQLQHIESEISRLDVQNAEAERDKYQEESLRLRTRFEKLSSENAGKLGEMKQLQNQIDSLTHQLRTDYKDIEKNYHKEWVELQTRSFVTDDIDVYSKALDSAIMKYHGLKMQDINRIIDELWKRTYSGTDIDTIKIRSDEVSSTVKGKSYNYRVVMYKQDVELDMRGRCSAGQKVLASIIIRLALSETFGANCGVIALDEPTTNLDEENIESLAKSLHNIINMRRHQKNFQLIVITHDEKFLGHMNAAAFTDHFFKVKRDDRQKSQIEWVDINRVTY
2 | binds | Xrs2 as Gal4 fusion for the yeast two-hybrid assay (protein, UniProt P33301 1-854) MWVVRYQNTLEDGSISFISCCLQAFKTYSIGRSSKNPLIIKNDKSISRQHITFKWEINNSSDLKHSSLCLVNKGKLTSLNKKFMKVGETFTINASDVLKSTIIELGTTPIRIEFEWINEVWNIPPHLTQFRTMLSEYGISTEISINDIPANLMISDYPKSEDNSIRELYALVSTIPMKKSRFLMELCNTLLPTSKTNLKFDEMWNDMISNPEYNVFDFDPNILLSKFMRLNNIRVLTTIKSEPRLSSLLRTFNINLFAFDNIDSLYKYVDSLEASTEYLILTTTDKKENGKILCTIKTMLTSIIDGTLSAVINMKGASSRTLDNGKFDQISEGMSTILKTSRAPEVEASPVVSKKRKLNRRRVLPLDSLDFFAGGLSTKTLSENRSLTDAKRLNCGAESKTVISSPNIAEADEKHAPFLQNALKPTEDIGKKSGHSSPGAIIVSSPNLGTVNTSEDSLDKSLQSHKLPQPSLPEVAGIGSQTISSNSADYETAAVNSMDDAEVTKNFRVNHHQNIEQPSKNIRKLSNYSREISSPLQENCKSPVKELSIKEKSGTPHAFVEAIQETKNREVKRVKSTIVELKDEELSEEAINQLKNLAIVEPSNNLLRKSFDSEGNKTSRTTEKWENSLMEPEWHKRKNFKTFVKVRPKSKAHKEEGKNNTQSSDFIRNAAFLITRNYVPLKKYSKKDTTTKWGTEENEDMFALTEMERFGSNTFMSDNINSNTIQKRSQALNRFTNEDSSNEGEEDSFSFSRCSGTAASVQPLKNKIFITDEDDLGDIDDKSDRLNHRENNRNLFVVKEMNLRPNLSEECSKQSRHSRSATSRSRGSFGASNNGDGDDDDDDGPKFTFKRRKG
